Experimental data as given in patent US5439887A, “Peptide having antihypertensive activity free of vascoconstrictor activity” (Roussel-Uclaf, priority 1992, dated 1995).
At least one peptide structure holds a part that was inferred or is arguable (an end, a ring closure or a residue). Bridge positions count the residues as written; N and C are the ends. Peptide text beside a SMILES is read from it.

tested on: pithed rats; assay: Vasoconstrictor activity in pithed rats (increase in arterial blood pressure); type: in vivo, rat; conditions: dose 1 μg/kg i.v., pithed Sprague-Dawley rats, change relative to initial pressure

How did the “% increase in mABP” value turn out when CC[C@H](C)[C@H](NC(=O)[C@H](CC(=O)O)NC(=O)[C@H](CC(C)C)NC(=O)[C@H](Cc1c[nH]cn1)NC(=O)[C@@H]1CSSC[C@H](N)C(=O)N[C@@H](CO)C(=O)N[C@H]2CSSC[C@H](NC(=O)[C@H](CCC(=O)O)NC(=O)[C@H](CCCCN)NC(=O)[C@H](CC(=O)O)NC(=O)[C@H](CC(C)C)NC(=O)[C@H](CO)NC(=O)[C@H](CO)NC(=O)[C@H](Cc3ccccc3)NC2=O)C(=O)N[C@@H](C(C)C)C(=O)N[C@@H](Cc2ccc(O)cc2)C(=O)N[C@@H](Cc2ccccc2)C(=O)N1)C(=O)N[C@H](C(=O)N[C@@H](Cc1c[nH]c2ccccc12)C(=O)O)[C@@H](C)CC [Example 4] (H-CSCFSSLDKECVYFCHLDIIW-OH; disulfide 1-15, 3-11) was run?
Its value is “+16%”.

target: endothelin receptor; assay: [125I]endothelin displacement from rat posterior cortex plus cerebellum membranes; type: binding; conditions: displacement of [125I]endothelin, rat brain membranes, 25° C., 60 minutes
Method: A membrane preparation was made from rat posterior cortex plus cerebellum and the tissue was ground using a POLYTRON in 50 mM Tris buffer pH 7.4. After 30 minutes at 25° C. (water bath), the homogenate was centrifuged at 30,000 g for 15 minutes (2 centrifugations interspersed by taking up in Tris buffer pH 7.4).
The pellets were resuspended in an incubation buffer (25 mM Tris, pepstatin A 5 μg/ml, aprotinin 3 μg/ml, 0.1 mM PMSF, 3 mM EDTA, 1 mM EGTA pH 7.4).
2 ml aliquots were distributed in haemolysis tubes and [125 I]endothelin (approximately 50,000 dpm/tube) and the test product were added. The product was first tested at […] in triplicate. When the test product displaced by more than 50% the radioactivity specifically bound to the receptor, it was tested again in a series of 7 concentrations to determine the concentration which inhibited by 50% the radioactivity specifically bound to the receptor. The 50% inhibitory concentration was thereby determined.
Non-specific binding was determined by adding 10^-6 M endothelin (in triplicate). The preparation was incubated at 25° C. for 60 minutes, put back on a water bath at 0° C. for 5 minutes, filtered off under reduced pressure and rinsed with […] Tris buffer pH 7.4, and the radioactivity was counted in the presence of Triton scintillant. The result was expressed directly as a 50% inhibitory concentration (IC50), that is to say as a concentration of test product, expressed in nM, required to displace 50% of the specific radioactivity bound to the receptor under study.

With CC[C@H](C)[C@H](NC(=O)[C@@H](NC(=O)[C@H](CC(=O)O)NC(=O)[C@H](CC(C)C)NC(=O)[C@H](Cc1c[nH]cn1)NC(=O)[C@@H]1CSSC[C@H](N)C(=O)N[C@@H](CO)C(=O)N[C@H]2CSSC[C@H](NC(=O)[C@H](CCC(=O)O)NC(=O)[C@H](CCCCN)NC(=O)[C@H](CC(=O)O)NC(=O)[C@H](CC(C)C)NC(=O)[C@H](Cc3c[nH]c4ccccc34)NC(=O)[C@H](CO)NC(=O)[C@H](CC(N)=O)NC2=O)C(=O)N[C@@H](C(C)C)C(=O)N[C@@H](Cc2ccc(O)cc2)C(=O)N[C@@H](Cc2ccccc2)C(=O)N1)[C@@H](C)CC)C(=O)O [Example 2] (H-CSCNSWLDKECVYFCHLDII-OH; disulfide 1-15, 3-11) as the compound, how does the IC50 read?
Its IC50 is 938 nM.

Which IC50 does the source give for CC[C@H](C)[C@H](NC(=O)[C@H](CC(=O)O)NC(=O)[C@H](CC(C)C)NC(=O)[C@H](Cc1c[nH]cn1)NC(=O)[C@@H]1CSSC[C@H](N)C(=O)N[C@@H](CO)C(=O)N[C@H]2CSSC[C@H](NC(=O)[C@H](CCC(=O)O)NC(=O)[C@H](CCCCN)NC(=O)[C@H](CC(=O)O)NC(=O)[C@H](CC(C)C)NC(=O)[C@H](Cc3c[nH]c4ccccc34)NC(=O)[C@H](CO)NC(=O)[C@H](Cc3ccccc3)NC2=O)C(=O)N[C@@H](C(C)C)C(=O)N[C@@H](Cc2ccc(O)cc2)C(=O)N[C@@H](Cc2ccccc2)C(=O)N1)C(=O)N[C@H](C(=O)N[C@@H](Cc1c[nH]c2ccccc12)C(=O)O)[C@@H](C)CC [Example 3] (H-CSCFSWLDKECVYFCHLDIIW-OH; disulfide 1-15, 3-11) here?
The IC50 was 2.6 nM.

Which IC50 does the source give for CC[C@H](C)[C@H](NC(=O)[C@H](CC(=O)O)NC(=O)[C@H](CC(C)C)NC(=O)[C@H](Cc1c[nH]cn1)NC(=O)[C@@H]1CSSC[C@H](N)C(=O)N[C@@H](CO)C(=O)N[C@H]2CSSC[C@H](NC(=O)[C@H](CCC(=O)O)NC(=O)[C@H](CCCCN)NC(=O)[C@H](CC(=O)O)NC(=O)[C@H](CC(C)C)NC(=O)[C@H](CO)NC(=O)[C@H](CO)NC(=O)[C@H](Cc3ccccc3)NC2=O)C(=O)N[C@@H](C(C)C)C(=O)N[C@@H](Cc2ccc(O)cc2)C(=O)N[C@@H](Cc2ccccc2)C(=O)N1)C(=O)N[C@H](C(=O)N[C@@H](Cc1c[nH]c2ccccc12)C(=O)O)[C@@H](C)CC [Example 4] (H-CSCFSSLDKECVYFCHLDIIW-OH; disulfide 1-15, 3-11) here?
The IC50 was 3 nM.

Which IC50 does the source give for CC[C@H](C)[C@H](NC(=O)[C@H](CC(=O)O)NC(=O)[C@H](CC(C)C)NC(=O)[C@H](Cc1c[nH]cn1)NC(=O)[C@@H]1CSSC[C@H](N)C(=O)N[C@@H](CO)C(=O)N[C@H]2CSSC[C@H](NC(=O)[C@H](CCC(=O)O)NC(=O)[C@H](CCCCN)NC(=O)[C@H](CC(=O)O)NC(=O)[C@H](CC(C)C)NC(=O)[C@H](Cc3ccc(O)cc3)NC(=O)[C@H](CO)NC(=O)[C@H](CC(N)=O)NC2=O)C(=O)N[C@@H](C(C)C)C(=O)N[C@@H](Cc2ccc(O)cc2)C(=O)N[C@@H](Cc2ccccc2)C(=O)N1)C(=O)N[C@H](C(=O)N[C@@H](Cc1c[nH]c2ccccc12)C(=O)O)[C@@H](C)CC [Example 5] (H-CSCNSYLDKECVYFCHLDIIW-OH; disulfide 1-15, 3-11) here?
The IC50 was 1.2 nM.

Which IC50 does the source give for CC[C@H](C)[C@H](NC(=O)[C@H](CC(=O)O)NC(=O)[C@H](CC(C)C)NC(=O)[C@H](Cc1c[nH]cn1)NC(=O)[C@@H]1CSSC[C@H](N)C(=O)N[C@@H](CO)C(=O)N[C@H]2CSSC[C@H](NC(=O)[C@H](CCC(=O)O)NC(=O)[C@H](CCC(=O)O)NC(=O)[C@H](CC(=O)O)NC(=O)[C@H](CC(C)C)NC(=O)[C@H](CO)NC(=O)[C@H](CO)NC(=O)[C@H](Cc3ccccc3)NC2=O)C(=O)N[C@@H](C(C)C)C(=O)N[C@@H](Cc2ccc(O)cc2)C(=O)N[C@@H](Cc2ccccc2)C(=O)N1)C(=O)N[C@H](C(=O)N[C@@H](Cc1c[nH]c2ccccc12)C(=O)O)[C@@H](C)CC [Example 6] (H-CSCFSSLDEECVYFCHLDIIW-OH; disulfide 1-15, 3-11) here?
Its IC50 is 2.9 nM.

How did the IC50 turn out when CC[C@H](C)[C@H](NC(=O)[C@H](CC(=O)O)NC(=O)[C@H](CC(C)C)NC(=O)[C@H](Cc1c[nH]cn1)NC(=O)[C@@H]1CSSC[C@H](N)C(=O)N[C@@H](CO)C(=O)N[C@H]2CSSC[C@H](NC(=O)[C@H](CCC(=O)O)NC(=O)[C@H](CCCCN)NC(=O)[C@H](CC(=O)O)NC(=O)[C@H](CC(C)C)NC(=O)[C@H](Cc3c[nH]c4ccccc34)NC(=O)[C@H](CO)NC(=O)CNC2=O)C(=O)N[C@@H](C(C)C)C(=O)N[C@@H](Cc2ccc(O)cc2)C(=O)N[C@@H](Cc2ccccc2)C(=O)N1)C(=O)N[C@H](C(=O)N[C@@H](Cc1c[nH]c2ccccc12)C(=O)O)[C@@H](C)CC [Example 7] (H-CSCGSWLDKECVYFCHLDIIW-OH; disulfide 1-15, 3-11) was run?
Its IC50 is 0.9 nM.

For CC[C@H](C)[C@H](NC(=O)[C@H](CC(=O)O)NC(=O)[C@H](CC(C)C)NC(=O)[C@H](Cc1c[nH]cn1)NC(=O)[C@@H]1CSSC[C@H](N)C(=O)N[C@@H](CO)C(=O)N[C@H]2CSSC[C@H](NC(=O)[C@H](CCC(=O)O)NC(=O)[C@H](CCCCN)NC(=O)[C@H](CC(=O)O)NC(=O)[C@H](CC(C)C)NC(=O)[C@H](CO)NC(=O)[C@H](CO)NC(=O)[C@H](CC(N)=O)NC2=O)C(=O)N[C@@H](C(C)C)C(=O)N[C@@H](Cc2ccc(O)cc2)C(=O)N[C@@H](Cc2ccccc2)C(=O)N1)C(=O)N[C@H](C(=O)N[C@@H](Cc1c[nH]c2ccccc12)C(=O)O)[C@@H](C)CC [Example 8] (H-CSCNSSLDKECVYFCHLDIIW-OH; disulfide 1-15, 3-11), which IC50 is on record?
The IC50 was 0.9 nM.

How did the IC50 turn out when CC[C@H](C)[C@H](NC(=O)[C@H](CC(=O)O)NC(=O)[C@H](CC(C)C)NC(=O)[C@H](Cc1c[nH]cn1)NC(=O)[C@@H]1CSSC[C@H](N)C(=O)N[C@@H](CO)C(=O)N[C@H]2CSSC[C@H](NC(=O)[C@H](CCC(=O)O)NC(=O)[C@H](CCCCN)NC(=O)[C@H](CC(=O)O)NC(=O)[C@H](CC(C)C)NC(=O)[C@H](CCCCN)NC(=O)[C@H](CO)NC(=O)[C@H](Cc3ccccc3)NC2=O)C(=O)N[C@@H](C(C)C)C(=O)N[C@@H](Cc2ccc(O)cc2)C(=O)N[C@@H](Cc2ccccc2)C(=O)N1)C(=O)N[C@H](C(=O)N[C@@H](Cc1c[nH]c2ccccc12)C(=O)O)[C@@H](C)CC [Example 10] (H-CSCFSKLDKECVYFCHLDIIW-OH; disulfide 1-15, 3-11) was run?
The IC50 was 1.8 nM.

Which IC50 does the source give for CC[C@H](C)[C@H](NC(=O)[C@H](CC(=O)O)NC(=O)[C@H](CC(C)C)NC(=O)[C@H](Cc1c[nH]cn1)NC(=O)[C@@H]1CSSC[C@H](N)C(=O)N[C@@H](CO)C(=O)N[C@H]2CSSC[C@H](NC(=O)[C@H](CCC(=O)O)NC(=O)[C@H](CCCCN)NC(=O)[C@H](CC(=O)O)NC(=O)[C@H](CC(C)C)NC(=O)[C@H]([C@@H](C)O)NC(=O)[C@H](CO)NC(=O)[C@H](Cc3ccccc3)NC2=O)C(=O)N[C@@H](C(C)C)C(=O)N[C@@H](Cc2ccc(O)cc2)C(=O)N[C@@H](Cc2ccc(O)cc2)C(=O)N1)C(=O)N[C@H](C(=O)N[C@@H](Cc1c[nH]c2ccccc12)C(=O)O)[C@@H](C)CC [Example 11] (H-CSCFSTLDKECVYYCHLDIIW-OH; disulfide 1-15, 3-11) here?
Its IC50 is 1 nM.

For CC[C@H](C)[C@H](NC(=O)[C@H](CC(=O)O)NC(=O)[C@H](CC(C)C)NC(=O)[C@H](Cc1c[nH]cn1)NC(=O)[C@@H]1CSSC[C@H](N)C(=O)N[C@@H](CO)C(=O)N[C@@H](C)C(=O)N[C@@H](Cc2ccccc2)C(=O)N[C@@H](CO)C(=O)N[C@@H](CO)C(=O)N[C@@H](CC(C)C)C(=O)N[C@@H](CC(=O)O)C(=O)N[C@@H](CCCCN)C(=O)N[C@@H](CCC(=O)O)C(=O)N[C@@H](C)C(=O)N[C@@H](C(C)C)C(=O)N[C@@H](Cc2ccc(O)cc2)C(=O)N[C@@H](Cc2ccccc2)C(=O)N1)C(=O)N[C@H](C(=O)N[C@@H](Cc1c[nH]c2ccccc12)C(=O)O)[C@@H](C)CC [Example 13] (H-CSAFSSLDKEAVYFCHLDIIW-OH; disulfide 1-15), which IC50 is on record?
Its IC50 is 1.4 nM.

With CC[C@H](C)[C@H](NC(=O)[C@H](CC(=O)O)NC(=O)[C@H](CC(C)C)NC(=O)[C@H](Cc1c[nH]cn1)NC(=O)[C@@H]1CSSC[C@H](N)C(=O)N[C@@H](CO)C(=O)N[C@H]2CSSC[C@H](NC(=O)[C@H](CCC(=O)O)NC(=O)[C@H](CCCCN)NC(=O)[C@H](CC(=O)O)NC(=O)[C@H](CC(C)C)NC(=O)[C@H]([C@@H](C)O)NC(=O)[C@H](CO)NC(=O)[C@H](CC(N)=O)NC2=O)C(=O)N[C@@H](C(C)C)C(=O)N[C@@H](Cc2ccc(O)cc2)C(=O)N[C@@H](Cc2ccccc2)C(=O)N1)C(=O)N[C@H](C(=O)N[C@@H](Cc1c[nH]c2ccccc12)C(=O)O)[C@@H](C)CC [Example 14] (H-CSCNSTLDKECVYFCHLDIIW-OH; disulfide 1-15, 3-11) as the compound, how does the IC50 read?
Its IC50 is 2.2 nM.

CC[C@H](C)[C@H](NC(=O)[C@H](CC(=O)O)NC(=O)[C@H](CC(C)C)NC(=O)[C@H](Cc1c[nH]cn1)NC(=O)[C@@H]1CSSC[C@H](N)C(=O)N[C@@H](CO)C(=O)N[C@@H](C)C(=O)N[C@@H](CC(N)=O)C(=O)N[C@@H](CO)C(=O)N[C@@H](Cc2c[nH]c3ccccc23)C(=O)N[C@@H](CC(C)C)C(=O)N[C@@H](CC(=O)O)C(=O)N[C@@H](CCCCN)C(=O)N[C@@H](CCC(=O)O)C(=O)N[C@@H](C)C(=O)N[C@@H](C(C)C)C(=O)N[C@@H](Cc2ccc(O)cc2)C(=O)N[C@@H](Cc2ccccc2)C(=O)N1)C(=O)N[C@H](C(=O)N[C@@H](Cc1c[nH]c2ccccc12)C(=O)O)[C@@H](C)CC [Example 17] (H-CSANSWLDKEAVYFCHLDIIW-OH; disulfide 1-15) was tested. Which IC50 did it give?
Its IC50 is 1.9 nM.
